# In the supplement of paper PMC8728848:
# Some of the results follow.
# B1: MpL2 (Macrolepiota procera) (protein)
# chain: MSTQVSSGQTYKITNVKAGTVIDLSGEDNKSIIGYPYHSGKNQQWTFNWTGKAWTLRSASSGSYLGIEGTPADGTRLVAVNDPFEWHIWRDEANENAFRIFVPFTNYNLRLSGYGDTTPGTPVQLWWTWEGLHQTWTIDRP
# Tests used:
# Assay in all cases: glycan array binding signal (z-score within array); higher = stronger binding
# Details in all cases: glycan notation: IUPAC condensed, linker removed; mutation: D109R
# [1] = target: Neu5Ac(a2-6)Gal(b1-4)GlcNAc(b1-2)Man(a1-3)[Man(a1-6)]Man(b1-4)GlcNAc(b1-4)GlcNAc
# Summary of the method: (§1)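 Glycan array data came from 3228 arrays in the Consortium for Functional Glycomics database, and only arrays with an available protein sequence were kept. Glycan names were put into IUPAC-condensed notation, and columns mapping to the same glycan were averaged. The binding signal is a within-array Z-score, averaged across arrays of one protein sequence run at different concentrations or buffers and across linkers. A negative Z-score can be read as non-binding.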
# [2] = target: Neu5Ac(a2-6)Gal(b1-4)GlcNAc(b1-2)Man(a1-3)[Neu5Ac(a2-3)Gal(b1-4)GlcNAc(b1-2)Man(a1-6)]Man(b1-4)GlcNAc(b1-4)GlcNAc
# Summary of the method: as §1
# [3] = target: Neu5Ac(a2-6)Gal(b1-4)GlcNAc(b1-2)Man(a1-3)[Neu5Ac(a2-6)Gal(b1-4)GlcNAc(b1-2)Man(a1-6)]Man(b1-4)GlcNAc(b1-4)GlcNAc
# Summary of the method: as §1
# [4] = target: Neu5Ac(a2-6)Gal(b1-4)GlcNAc(b1-2)Man(a1-3)[Neu5Ac(a2-6)Gal(b1-4)GlcNAc(b1-2)Man(a1-6)]Man(b1-4)GlcNAc(b1-4)[Fuc(a1-6)]GlcNAc
# Summary of the method: as §1
# [5] = target: Neu5Ac(a2-6)Gal(b1-4)GlcNAc(b1-2)Man(a1-6)Man(b1-4)GlcNAc(b1-4)GlcNAc
# Summary of the method: as §1
# [6] = target: Neu5Ac(a2-6)Gal(b1-4)GlcNAc(b1-2)Man(a1-6)[Gal(b1-4)GlcNAc(b1-2)Man(a1-3)]Man(b1-4)GlcNAc(b1-4)GlcNAc
# Summary of the method: as §1
# [7] = target: Neu5Ac(a2-6)Gal(b1-4)GlcNAc(b1-2)Man(a1-6)[GlcNAc(b1-2)Man(a1-3)]Man(b1-4)GlcNAc(b1-4)GlcNAc
# Summary of the method: as §1
# [8] = target: Neu5Ac(a2-6)Gal(b1-4)GlcNAc(b1-2)Man(a1-6)[Man(a1-3)]Man(b1-4)GlcNAc(b1-4)GlcNAc
# Summary of the method: as §1
# [9] = target: Neu5Ac(a2-6)Gal(b1-4)GlcNAc(b1-2)[Neu5Ac(a2-6)Gal(b1-4)GlcNAc(b1-4)]Man(a1-3)[GlcNAc(b1-4)][Neu5Ac(a2-6)Gal(b1-4)GlcNAc(b1-2)[Neu5Ac(a2-6)Gal(b1-4)GlcNAc(b1-6)]Man(a1-6)]Man(b1-4)GlcNAc(b1-4)GlcNAc
# Summary of the method: as §1
# [10] = target: Neu5Ac(a2-6)Gal(b1-4)GlcNAc(b1-2)[Neu5Ac(a2-6)Gal(b1-4)GlcNAc(b1-4)]Man(a1-3)[GlcNAc(b1-4)][Neu5Ac(a2-6)Gal(b1-4)GlcNAc(b1-4)Man(a1-6)]Man(b1-4)GlcNAc(b1-4)GlcNAc
# Summary of the method: as §1
# [11] = target: Neu5Ac(a2-6)Gal(b1-4)GlcNAc(b1-2)[Neu5Ac(a2-6)Gal(b1-4)GlcNAc(b1-6)]Man(a1-6)[Neu5Ac(a2-6)Gal(b1-4)GlcNAc(b1-2)Man(a1-3)][GlcNAc(b1-4)]Man(b1-4)GlcNAc(b1-4)GlcNAc
# Summary of the method: as §1
# [12] = target: Neu5Ac(a2-6)Gal(b1-4)GlcNAc(b1-3)Gal(b1-3)GlcNAc
# Summary of the method: as §1
# [13] = target: Neu5Ac(a2-6)Gal(b1-4)GlcNAc(b1-3)Gal(b1-4)GlcNAc
# Summary of the method: as §1
# [14] = target: Neu5Ac(a2-6)Gal(b1-4)GlcNAc(b1-3)Gal(b1-4)GlcNAc(b1-2)Man(a1-3)[Neu5Ac(a2-6)Gal(b1-4)GlcNAc(b1-3)Gal(b1-4)GlcNAc(b1-2)Man(a1-6)]GalNAc
# Summary of the method: as §1
# [15] = target: Neu5Ac(a2-6)Gal(b1-4)GlcNAc(b1-3)Gal(b1-4)GlcNAc(b1-3)Gal(b1-4)GlcNAc
# Summary of the method: as §1
# [16] = target: Neu5Ac(a2-6)Gal(b1-4)GlcNAc(b1-3)Gal(b1-4)GlcNAc(b1-3)Gal(b1-4)GlcNAc(b1-2)Man(a1-3)[Neu5Ac(a2-6)Gal(b1-4)GlcNAc(b1-3)Gal(b1-4)GlcNAc(b1-3)Gal(b1-4)GlcNAc(b1-2)Man(a1-6)]GalNAc
# Summary of the method: as §1
# [17] = target: Neu5Ac(a2-6)Gal(b1-4)GlcNAc(b1-3)Gal(b1-4)GlcNAc(b1-3)GalNAc
# Summary of the method: as §1
# [18] = target: Neu5Ac(a2-6)Gal(b1-4)GlcNAc(b1-3)Gal(b1-4)GlcNAc(b1-3)[Neu5Ac(a2-6)Gal(b1-4)GlcNAc(b1-3)Gal(b1-4)GlcNAc(b1-6)]GalNAc
# Summary of the method: as §1
# [19] = target: Neu5Ac(a2-6)Gal(b1-4)GlcNAc(b1-3)Gal(b1-4)GlcNAc(b1-6)[Gal(b1-3)]GalNAc
# Summary of the method: as §1
# [20] = target: Neu5Ac(a2-6)Gal(b1-4)GlcNAc(b1-3)Gal(b1-4)[Fuc(a1-3)]GlcNAc(b1-3)Gal(b1-4)[Fuc(a1-3)]GlcNAc
# Summary of the method: as §1
# [21] = target: Neu5Ac(a2-6)Gal(b1-4)GlcNAc(b1-3)GalNAc
# Summary of the method: as §1
# [22] = target: Neu5Ac(a2-6)Gal(b1-4)GlcNAc(b1-3)[Neu5Ac(a2-6)Gal(b1-4)GlcNAc(b1-6)]GalNAc
# Summary of the method: as §1
# [23] = target: Neu5Ac(a2-6)Gal(b1-4)GlcNAc(b1-6)GalNAc
# Summary of the method: as §1
# [24] = target: Neu5Ac(a2-6)Gal(b1-4)GlcNAc(b1-6)[Gal(b1-3)GlcNAc(b1-3)]Gal(b1-4)Glc
# Summary of the method: as §1
# [25] = target: Neu5Ac(a2-6)Gal(b1-4)GlcNAc(b1-6)[Gal(b1-3)]GalNAc
# Summary of the method: as §1
# [26] = target: Neu5Ac(a2-6)Gal(b1-4)GlcNAc6S
# Summary of the method: as §1
# Neu5Ac(a2-6)GalNAc = target: Neu5Ac(a2-6)GalNAc
# Summary of the method: as §1
# [27] = target: Neu5Ac(a2-6)GalNAc(b1-4)GlcNAc
# Summary of the method: as §1
# [28] = target: Neu5Ac(a2-6)GalNAc(b1-4)GlcNAc6S
# Summary of the method: as §1
# [29] = target: Neu5Ac(a2-6)GlcNAc(b1-4)GlcNAc
# Summary of the method: as §1
# [30] = target: Neu5Ac(a2-6)GlcNAc(b1-4)GlcNAc(b1-4)GlcNAc
# Summary of the method: as §1
binder,measurement,setting,value
B1,glycan array binding signal (z-score),[1],-0.247
same,glycan array binding signal (z-score),[2],-0.261
same,glycan array binding signal (z-score),[3],-0.225
same,glycan array binding signal (z-score),[4],-0.223
same,glycan array binding signal (z-score),[5],-0.252
same,glycan array binding signal (z-score),[6],-0.178
same,glycan array binding signal (z-score),[7],-0.281
same,glycan array binding signal (z-score),[8],-0.273
same,glycan array binding signal (z-score),[9],-0.294
same,glycan array binding signal (z-score),[10],-0.276
same,glycan array binding signal (z-score),[11],-0.265
same,glycan array binding signal (z-score),[12],-0.137
same,glycan array binding signal (z-score),[13],-0.269
same,glycan array binding signal (z-score),[14],-0.172
same,glycan array binding signal (z-score),[15],-0.253
same,glycan array binding signal (z-score),[16],-0.063
same,glycan array binding signal (z-score),[17],-0.261
same,glycan array binding signal (z-score),[18],0.019
same,glycan array binding signal (z-score),[19],-0.233
same,glycan array binding signal (z-score),[20],-0.251
same,glycan array binding signal (z-score),[21],-0.278
same,glycan array binding signal (z-score),[22],-0.255
same,glycan array binding signal (z-score),[23],-0.236
same,glycan array binding signal (z-score),[24],-0.167
same,glycan array binding signal (z-score),[25],-0.26
same,glycan array binding signal (z-score),[26],-0.289
same,glycan array binding signal (z-score),Neu5Ac(a2-6)GalNAc,-0.276
same,glycan array binding signal (z-score),[27],-0.301
same,glycan array binding signal (z-score),[28],-0.265
same,glycan array binding signal (z-score),[29],-0.275
same,glycan array binding signal (z-score),[30],-0.329
